# The campaign covered roughly 310,000 compounds. About 2,200 (0.71%) showed an effect of 50% or more. The effect is printed as a negative number. The list shows a part of the results.
# Target: human ether-à-go-go-related gene (hERG) potassium channel (human, UniProt Q12809)
# Test: primary screen, population patch clamp on CHO cells stably expressing hERG
# Sequence of human ether-à-go-go-related gene (hERG) potassium channel (Q12809 whole entry, looked up): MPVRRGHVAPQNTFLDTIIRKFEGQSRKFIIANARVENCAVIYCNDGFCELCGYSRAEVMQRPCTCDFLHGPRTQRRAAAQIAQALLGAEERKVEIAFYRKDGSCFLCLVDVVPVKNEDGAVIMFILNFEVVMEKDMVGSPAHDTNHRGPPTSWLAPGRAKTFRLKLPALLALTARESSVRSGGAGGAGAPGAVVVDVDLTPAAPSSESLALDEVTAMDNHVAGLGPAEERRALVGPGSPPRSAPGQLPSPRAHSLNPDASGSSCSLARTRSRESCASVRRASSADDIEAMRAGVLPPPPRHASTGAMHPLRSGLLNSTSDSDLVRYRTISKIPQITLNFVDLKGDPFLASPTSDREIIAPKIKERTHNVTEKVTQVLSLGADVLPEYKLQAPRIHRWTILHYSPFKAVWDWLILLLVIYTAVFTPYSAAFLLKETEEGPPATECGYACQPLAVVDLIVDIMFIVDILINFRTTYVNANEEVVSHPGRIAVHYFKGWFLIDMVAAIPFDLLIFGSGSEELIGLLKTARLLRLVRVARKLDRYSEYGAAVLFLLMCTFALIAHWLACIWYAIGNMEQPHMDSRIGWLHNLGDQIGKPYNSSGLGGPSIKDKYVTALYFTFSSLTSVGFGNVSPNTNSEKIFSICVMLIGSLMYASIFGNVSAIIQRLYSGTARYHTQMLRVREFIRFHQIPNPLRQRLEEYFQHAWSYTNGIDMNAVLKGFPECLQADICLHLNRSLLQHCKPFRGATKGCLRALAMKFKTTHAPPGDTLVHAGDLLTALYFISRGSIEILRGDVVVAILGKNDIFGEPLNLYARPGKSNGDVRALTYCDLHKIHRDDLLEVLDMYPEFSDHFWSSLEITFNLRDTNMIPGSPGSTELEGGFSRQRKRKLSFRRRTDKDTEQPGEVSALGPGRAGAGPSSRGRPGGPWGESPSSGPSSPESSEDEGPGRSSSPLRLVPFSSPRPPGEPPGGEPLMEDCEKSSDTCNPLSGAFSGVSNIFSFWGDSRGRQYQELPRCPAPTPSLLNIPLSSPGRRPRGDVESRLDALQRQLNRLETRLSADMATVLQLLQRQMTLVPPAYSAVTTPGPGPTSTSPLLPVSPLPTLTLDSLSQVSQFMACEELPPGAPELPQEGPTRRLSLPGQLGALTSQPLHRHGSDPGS
row,Structure (SMILES),"hERG current change (%, negative = inhibition) at 1uM"
1,COc1ccc(-c2n[nH]c(=S)n2-c2ccccc2C)cc1,15.3%
2,CCCc1cc(=O)[nH]c(SCC(=O)NCCC2=CCCCC2)n1,7.16%
3,CC(C)=CC1C(C(=O)NCCc2ccccc2)C1(C)C (stereo not drawn),-3.43%
4,Cc1cccc(NC(=O)Cn2cc(C=O)c3ccccc32)c1,15.7%
5,CCOc1ccc(NC(=O)CN(C)C(=O)c2ccc(COc3ccccc3)o2)cc1OCC,1.43%
6,COc1cccc(CC2(CO)CCCN(Cc3ccc(OC)c(C)c3OC)C2)c1 (stereo not drawn),-80.2%
7,CCn1c(Cc2cccs2)nnc1SCC(=O)c1ccc(C)cc1,5.59%
8,Cc1oc(-c2cccc(Br)c2)[n+]([O-])c1C,7.02%
9,COc1ccc(Cl)cc1-c1nc(-c2ccc(NC(=O)c3cccs3)cc2)no1,8.41%
10,O=C(Nc1cnn(Cc2c(Cl)cccc2Cl)c1)c1ccc([N+](=O)[O-])cc1,4.46%
11,CCOc1ccc(NS(=O)(=O)c2ccc(C(=O)N(C)CCc3ccc(OC)c(OC)c3)cc2)cc1,6.82%
12,CCOC(=O)C1CCN(C(=O)Cn2nc(C)n3cccc3c2=O)CC1,5.78%
13,Cl.c1ccc2c(N3CCCCC3)ncnc2c1,7.02%
14,C(=N\N1CCOCC1)/c1cccs1,10%
15,Cc1cc(C)c(CN2CCC(n3nccc3NC(=O)c3ccccc3Cl)CC2)cc1C,1.2%
16,CCSc1cc(N2CCOCC2)nc(-c2ccccc2)n1,10.1%
17,O=C(CCNS(=O)(=O)c1ccc(Cl)cc1)OCC(=O)N1CCN(C(=O)c2ccco2)CC1,13.2%
18,O=C(C[n+]1cccc(CO)c1)Nc1nc2ccccc2s1.[Cl-],2.06%
19,Cn1c(-c2ccco2)n[nH]c1=S,11.1%
20,CCn1nc(C)c(/C=N/NC(=O)c2ccoc2C)c1C,13.2%
21,O=C(NCCN1CCN(c2ccccc2)CC1)Nc1ccc(Cl)cc1,-10.3%
22,Cc1cc(C)c2nc(-c3cccc(Cl)c3)c(C)c(C(=O)N3CCOCC3)c2c1,16.4%
23,COc1ccccc1N1CCN(Cc2cccc(OC)c2O)CC1,-20.1%

row,Structure (SMILES),"hERG current change (%, negative = inhibition) at 1uM"
1,CCCc1cnc(N2CCN(C(=O)c3ccccc3)CC2)nc1,-3.08%
2,CCC(NC(=O)C1CCC1)c1ccccc1 (stereo not drawn),13.6%
3,Cc1ccc(N=C2SCCCN2C(=O)c2ccco2)cc1Cl,11.5%
4,CC(OC(=O)CCCc1nc2ccccc2s1)C(=O)NC(N)=O (stereo not drawn),-1.04%
5,CC1(C)CC2CC(C)(CN2C(=O)COC(=O)c2ccccc2C(F)(F)F)C1 (stereo not drawn),8.67%
6,O=S(=O)(N/N=C\c1cccc(F)c1)c1ccccc1,2.31%
7,CCCCN1CC(O)=C(c2nc3ccccc3[nH]2)C1=N,11.4%
8,CSC1=NSC2=NC(=O)/C(=C/c3coc4ccc(O)cc4c3=O)C(=N)N12,0.0483%
9,O=CN1CCCN(Cc2nc(Cc3ccccc3F)no2)CC1,12.3%
10,COc1cccc(OC)c1C(=O)NC(C)c1ccccc1 (stereo not drawn),10.5%
11,CCOCCCn1c(=NC(C)=O)c(C(=O)OCC)cc2c(=O)n3ccccc3nc21,-4.7%
12,CC1CCCCN1C(=O)CCNC(=O)Cn1cnc2ccccc2c1=O (stereo not drawn),16.5%
13,CC(C)(C)c1ccc(C(=O)N/N=C/c2ccccn2)cc1,8.52%
14,COc1ccccc1C(=O)Nc1nnc(S(=O)(=O)N(C)Cc2ccccc2)s1,14.5%
15,Cc1ccc2cc(C)c3nnc(SCC(=O)Nc4nc5c(s4)CCCC5)n3c2c1C,3.81%
16,CCOC(=O)c1cc2[nH]c3ccccc3c2[n+](-c2ccc([N+](=O)[O-])cc2)c1N.O=C([O-])C(F)(F)F,-13.8%
17,COc1cccc(C2N(c3ccccc3)CCN2c2ccccc2)c1OC,11.3%
18,CCC(=O)Nc1ccc(C(=O)COC(=O)C(CCSC)NC(=O)COc2ccccc2)cc1 (stereo not drawn),10.6%
19,COc1ccc(C2C(C(=O)c3ccco3)=C(O)C(=O)N2CC2CCCO2)cc1OC (stereo not drawn),15.4%
20,Cc1ccc(C(=O)N2CCN(Cc3ccc4c(c3)OCO4)CC2)c(Cl)c1,10.5%
21,COc1ccc(C(=O)Nc2ccc3ccccc3n2)c(OC)c1OC,17.3%
22,CCCCN(CC)C(=S)Nc1ccc2nc(N3CCN(C)CC3)cc(C)c2c1,4.86%
